Where two headings read alike, the source gives them in different places.
T1: human PVRIG expressed on cells (human, UniProt Q6DKI7 1-326)
T1 sequence (looked up): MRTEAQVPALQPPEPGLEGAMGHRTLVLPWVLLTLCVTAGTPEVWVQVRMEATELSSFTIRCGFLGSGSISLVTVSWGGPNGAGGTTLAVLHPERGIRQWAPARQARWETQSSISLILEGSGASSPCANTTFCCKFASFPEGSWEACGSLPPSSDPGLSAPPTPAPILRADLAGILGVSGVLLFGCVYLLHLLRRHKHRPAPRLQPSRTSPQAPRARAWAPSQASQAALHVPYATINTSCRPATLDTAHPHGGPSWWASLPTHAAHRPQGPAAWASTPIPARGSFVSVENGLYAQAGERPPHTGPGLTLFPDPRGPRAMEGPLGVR

T2: h-PVRIG-his (his-tagged human PVRIG recombinant protein) (human, UniProt Q6DKI7 41-171, limits assumed)
T2 construct: His tag; also called Human PVRIG-his; human PVRIG antigen (AcroBiosystem, PVG-H52H4)
T2 sequence (looked up): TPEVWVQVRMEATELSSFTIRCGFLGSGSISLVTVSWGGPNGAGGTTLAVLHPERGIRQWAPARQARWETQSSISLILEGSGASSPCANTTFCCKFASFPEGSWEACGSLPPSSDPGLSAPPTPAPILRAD


Columns and labels:
[1] = target: T1, human PVRIG expressed on cells; assay: cell-based or functional assay
[2] = target: T2, h-PVRIG-his (his-tagged human PVRIG …); assay: ELISA, plate coated with PVRIG protein (his tag, PVG-H52H4)
[3] = target: T3, human PD-1 expressed on cells (human, UniProt Q15116 25-288); assay: cell-based or functional assay
[4] = target: T3, human PD-1 expressed on cells; assay: cell-based or functional assay; remark: listed apart in the source
T3 sequence (Q15116 25-288): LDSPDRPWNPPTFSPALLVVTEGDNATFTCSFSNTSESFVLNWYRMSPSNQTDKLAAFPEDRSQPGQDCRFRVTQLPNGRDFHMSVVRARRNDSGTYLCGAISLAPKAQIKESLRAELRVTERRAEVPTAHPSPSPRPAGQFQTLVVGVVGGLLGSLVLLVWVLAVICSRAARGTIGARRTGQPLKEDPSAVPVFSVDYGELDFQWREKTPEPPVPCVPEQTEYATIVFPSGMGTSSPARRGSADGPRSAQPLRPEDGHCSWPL

| Binder | IC50 (nM), PD-1/PD-L1 NFAT reporter gene system [4] | also measured |
| --- | --- | --- |
| 151 (anti-PVRIG nanobody, full length with human IgG4 Fc) (Fc fusion) heavy: HVQLVESGGGSVQAGGSLRLSCVASASGFTYRPYCMAWFRQAPGKEREAVAGIDIFGGTTYADSVKGRFTASRDNAGFSLFLQMNDLKPEDTAMYYCAAGDSPDGRCPPLGQGLNYWGQGTQVTVSS[gap - human IgG4 Fc with S228P F234A L235A (EU numbers)] |  | PVRIG reporter gene cell activity EC50 [1]: 0.04 nM |
| A17h1-1708-151H7-B (other, not shown: small tags and cut ends, also called PD-1/PVRIG/TIGIT-B) heavy: HVQLVESGGGLVQPGGSLRLSCVASASGFTYRPYCMAWFRQAPGKEREAVAGIDIFGGTTYADSVKGRFTASRDNAGFSLYLQMNSLRAEDTAVYYCAAGDSPDGRCPPLGQGLNYWGQGTMVTVSSGGGGSGGGGSEVQLVQSGAEVKKPGASVKVSCKASGYTFTNYWMHWVRQAPGQGLEWMGRIDPDSTGSKYNEKFKTRVTMTRDTSTSTVYMELSSLRSEDTAVYYCAREGAYGYYFDYWGQGTLVTVSSASTKGPSVFPLAPCSRSTSESTAALGCLVKDYFPEPVTVSWNSGALTSGVHTFPAVLQSSGLYSLSSVVTVPSSSLGTKTYTCNVDHKPSNTKVDKRV[gap - human IgG4 Fc with S228P (EU numbers)] light (part 1 of 2): EVQLQESGGGLVQPGGSLRLSCTASGLTFSDYSMSWYRQAPGKGRELVAIISGSGVIAHYVDSVKGRFTISRDNSKNTVYLQMRSLTPEDRAVYYCRAVSDWDDYWGQGTQVTVSS light (part 2 of 2): DIQMTQSPSSLSASVGDRVTITCRASENIYSYLAWYQQKPGKSPKLLIYNARTLAEGVPSRFSGSGSGTDFTLTISSLQPEDFATYYCQYHSGSPLPFGGGTKVEIKRTVAAPSVFIFPPSDEQLKSGTASVVCLLNNFYPREAKVQWKVDNALQSGNSQESVTEQDSKDSTYSLSSTLTLSKADYEKHKVYACEVTHQGLSSPVTKSFNRGEC |  | EC50 [2]: 0.154 nM |
| A17h1-1708-151H7-D (other, not shown: small tags and cut ends, also called PD-1/PVRIG/TIGIT-D) heavy: HVQLVESGGGLVQPGGSLRLSCVASASGFTYRPYCMAWFRQAPGKEREAVAGIDIFGGTTYADSVKGRFTASRDNAGFSLYLQMNSLRAEDTAVYYCAAGDSPDGRCPPLGQGLNYWGQGTMVTVSSGGGGSGGGGSEVQLVQSGAEVKKPGASVKVSCKASGYTFTNYWMHWVRQAPGQGLEWMGRIDPDSTGSKYNEKFKTRVTMTRDTSTSTVYMELSSLRSEDTAVYYCAREGAYGYYFDYWGQGTLVTVSSASTKGPSVFPLAPCSRSTSESTAALGCLVKDYFPEPVTVSWNSGALTSGVHTFPAVLQSSGLYSLSSVVTVPSSSLGTKTYTCNVDHKPSNTKVDKRV[gap - human IgG4 Fc with S228P (EU numbers)] light (part 1 of 2): DIQMTQSPSSLSASVGDRVTITCRASENIYSYLAWYQQKPGKSPKLLIYNARTLAEGVPSRFSGSGSGTDFTLTISSLQPEDFATYYCQYHSGSPLPFGGGTKVEIKRTVAAPSVFIFPPSDEQLKSGTASVVCLLNNFYPREAKVQWKVDNALQSGNSQESVTEQDSKDSTYSLSSTLTLSKADYEKHKVYACEVTHQGLSSPVTKSFNRGEC light (part 2 of 2): EVQLQESGGGLVQPGGSLRLSCTASGLTFSDYSMSWYRQAPGKGRELVAIISGSGVIAHYVDSVKGRFTISRDNSKNTVYLQMRSLTPEDRAVYYCRAVSDWDDYWGQGTQVTVSS |  | EC50 [2]: 0.158 nM |
| A17_hIgG4 (Fc fusion) heavy: EVQVVESGGGLVQPGGSLRLSCVASGLTFSDYSMSWYRQAPGKERELVAIISGSGVIAHYVDSVKGRFTISRDNAKSTVYLQMVSLKPEDRGVYYCRAVSDWDDYWGQGTQVTVSS[gap - human IgG4 Fc with S228P (EU numbers)] |  | IC50 (nM), PD-1/PD-L1 NFAT reporter gene system [3]: 1.2 nM |
| A17m09_hIgG4 (Fc fusion) EVQLQESGGGLVQPGGSLRLSCTASGLTFSDYSMSWYRQAPGKGRELVAIISGSGVITHYVDSVKGRFTISRDNAKNTVYLQMRSLTPEDRAVYYCRAVSDWEDYWGQGTQVTVSS[gap - human IgG4 Fc with S228P (EU numbers)] | 1.08 nM |  |

Second part, led by results:

| IC50 (nM), PD-1/PD-L1 NFAT reporter gene system [4] | Binder | also measured |
| --- | --- | --- |
| 0.435 nM | A17m0902_hIgG4 (Fc fusion) VHH-Fc: EVQLVESGGGLVQPGGSLRLSCAASGLTFSDYSMSWYRQAPGKGRELVAIISGSGVITHYVDSVKGRFTISRDNAKNTLYLQMRSLRAEDTAVYYCRAVSDWEDYWGQGTQVTVSS[gap - human IgG4 Fc with S228P (EU numbers)] |  |
| 0.531 nM | A17m0901_hIgG4 (Fc fusion) VHH-Fc: EVQLVESGGGLVQPGGSLRLSCAASGFTFSDYSMSWYRQAPGKGRELVAIISGSGVITHYVDSVKGRFTISRDNAKNTLYLQMRSLRAEDTAVYYCRAVSDWEDYWGQGTQVTVSS[gap - human IgG4 Fc with S228P (EU numbers)] |  |
| 1.04 nM | A17h1_hIgG4 (Fc fusion) EVQLQESGGGLVQPGGSLRLSCTASGLTFSDYSMSWYRQAPGKGRELVAIISGSGVIAHYVDSVKGRFTISRDNSKNTVYLQMRSLTPEDRAVYYCRAVSDWDDYWGQGTQVTVSS[gap - human IgG4 Fc with S228P (EU numbers)] |  |

— EP4681729A1 (Shanghai Mabgen Biotech Ltd., dated 2026)
